Measured values as given in patent US11564922B2, “Methods of treating crohn's disease and ulcerative colitis” (AbbVie Inc., priority 2017, dated 2023).
Marks after values point to notes of the source that are not given here.

System: patients with moderately to severely active Crohn's disease
Test: Example 8: randomized double-blind placebo-controlled study of upadacitinib, 16-week induction, Crohn's disease
Conditions: for Refractory patients achieving clinical remission at week 16, % / Refractory patients achieving endoscopic remission at 12 or 16 weeks, %: FIG. 9; for Steroid-free and CDAI < 150, Week 16 (NRI), % of patients / Steroid-free and clinical response, Week 16 (NRI), % of patients / Steroid-free remission, Week 16 (NRI), % of patients: among subjects taking steroids at BL; for CR70, Week 12 (NRI), % of patients / CR70, Week 16 (NRI), % of patients: decrease in CDAI score ≥70 from baseline; for CR100, Week 12 (NRI), % of patients / CR100, Week 16 (NRI), % of patients: decrease in CDAI score ≥100 from baseline

CC[C@@H]1CN(C(=O)NCC(F)(F)F)C[C@@H]1c1cnc2cnc3[nH]ccc3n12 [upadacitinib, (3S,4R)-3-ethyl-4-(3H-imidazo[1,2-a]pyrrolo[2,3-e]pyrazin-8-yl)-N-(2,2,2-trifluoroethyl)pyrrolidine-1-carboxamide]
CDAI < 150, Week 12 (NRI), % of patients (3 mg BID): 18.4% | CDAI < 150, Week 16 (NRI), % of patients (3 mg BID): (20.5%) | CDAI<150 at end of 16 week induction among patients who discontinued corticosteroids, % (3 mg BID): 19.0% | Clinical remission at end of 16 week induction among patients who discontinued corticosteroids, % (3 mg BID): 14.3% | Endoscopic Improvement, patients evaluated at Week 16, % (3 mg BID): 15.8% | Endoscopic response at end of 16 week induction among patients who discontinued corticosteroids, % (3 mg BID): 4.8% | Modified clinical remission at end of 16 week induction among patients who discontinued corticosteroids, % (3 mg BID): 14.3% | Patients tapering corticosteroids able to discontinue steroids by week 4, % (3 mg BID): 9.5% | Patients tapering corticosteroids able to discontinue steroids by week 8, % (3 mg BID): 23.8% | Patients tapering corticosteroids able to reduce their steroid dose by ≥50% by week 4, % (3 mg BID): 42.9% | Patients tapering corticosteroids able to reduce their steroid dose by ≥50% by week 8, % (3 mg BID): 42.9% | Patients tapering corticosteroids able to reduce their steroid dose by ≥50% by week 12, % (3 mg BID): 38.1% | Patients tapering corticosteroids able to reduce their steroid dose by ≥50% by week 16, % (3 mg BID): 38.1% | Risk Difference vs PBO, Endoscopic Remission (week 12 or 16) (3 mg BID): 10.3 | Risk difference vs PBO, Clinical Remission (week 16) (3 mg BID): 2.0 | Refractory patients achieving clinical remission at week 16, % (3 mg BID): 15.8% | Refractory patients achieving endoscopic remission at 12 or 16 weeks, % (3 mg BID): 13.2% | Endoscopic Improvement (Week 12 or 16), % of patients (3 mg BID, SES-CD >50% reduction from BL or ≥2 point reduction or endoscopic remission): 12.8% | Steroid-free and CDAI < 150, Week 16 (NRI), % of patients (3 mg BID): (20.0%) | Steroid-free and clinical response, Week 16 (NRI), % of patients (3 mg BID): (25%) | Steroid-free remission, Week 16 (NRI), % of patients (3 mg BID): (0)%) | CR70, Week 12 (NRI), % of patients (3 mg BID): 38.5% | CR70, Week 16 (NRI), % of patients (3 mg BID): (46.2%) | CR100, Week 12 (NRI), % of patients (3 mg BID): 30.8% | CR100, Week 16 (NRI), % of patients (3 mg BID): (33.3%) | CDAI < 150, Week 12 (NRI), % of patients (6 mg BID): 41.7% | CDAI < 150, Week 16 (NRI), % of patients (6 mg BID): (29.7%) | CDAI<150 at end of 16 week induction among patients who discontinued corticosteroids, % (6 mg BID): 22.2% | Clinical remission at end of 16 week induction among patients who discontinued corticosteroids, % (6 mg BID): 22.2% | Endoscopic Improvement, patients evaluated at Week 12, % (6 mg BID): 13.3% | Endoscopic Improvement, patients evaluated at Week 16, % (6 mg BID): 27.8% | Endoscopic remission at end of 16 week induction among patients who discontinued corticosteroids, % (6 mg BID): 11.1% | Endoscopic response at end of 16 week induction among patients who discontinued corticosteroids, % (6 mg BID): 16.7% | Modified clinical remission at end of 16 week induction among patients who discontinued corticosteroids, % (6 mg BID): 26.7% | Patients tapering corticosteroids able to discontinue steroids by week 4, % (6 mg BID): 11.1% | Patients tapering corticosteroids able to discontinue steroids by week 8, % (6 mg BID): 44.4% | Patients tapering corticosteroids able to reduce their steroid dose by ≥50% by week 4, % (6 mg BID): 50% | Patients tapering corticosteroids able to reduce their steroid dose by ≥50% by week 8, % (6 mg BID): 66.7% | Patients tapering corticosteroids able to reduce their steroid dose by ≥50% by week 12, % (6 mg BID): 61.1% | Risk Difference vs PBO, Endoscopic Remission (week 12 or 16) (6 mg BID): 8.1 | Refractory patients achieving clinical remission at week 16, % (6 mg BID): 30.3% | Refractory patients achieving endoscopic remission at 12 or 16 weeks, % (6 mg BID): 21.2% | Steroid-free and CDAI < 150, Week 16 (NRI), % of patients (6 mg BID): (22.2%) | Steroid-free and clinical response, Week 16 (NRI), % of patients (6 mg BID): (50%) | Steroid-free remission, Week 16 (NRI), % of patients (6 mg BID): (5.6%) | CR70, Week 12 (NRI), % of patients (6 mg BID): 59.5%* | CR70, Week 16 (NRI), % of patients (6 mg BID): (54.1%) | CR100, Week 12 (NRI), % of patients (6 mg BID): 51.4%* | CR100, Week 16 (NRI), % of patients (6 mg BID): (40.5%) | CDAI < 150, Week 12 (NRI), % of patients (12 mg BID): 47.2%* | CDAI < 150, Week 16 (NRI), % of patients (12 mg BID): (38.9%)* | CDAI<150 at end of 16 week induction among patients who discontinued corticosteroids, % (12 mg BID): 41.2% | Clinical remission at end of 16 week induction among patients who discontinued corticosteroids, % (12 mg BID): 11.8% | Endoscopic Improvement, patients evaluated at Week 16, % (12 mg BID): 27.3% | Endoscopic remission at end of 16 week induction among patients who discontinued corticosteroids, % (12 mg BID): 5.9% | Endoscopic response at end of 16 week induction among patients who discontinued corticosteroids, % (12 mg BID): 17.6% | Modified clinical remission at end of 16 week induction among patients who discontinued corticosteroids, % (12 mg BID): 25.0% | Patients tapering corticosteroids able to discontinue steroids by week 4, % (12 mg BID): 11.8% | Patients tapering corticosteroids able to discontinue steroids by week 8, % (12 mg BID): 64.7% | Patients tapering corticosteroids able to reduce their steroid dose by ≥50% by week 4, % (12 mg BID): 82.4% | Patients tapering corticosteroids able to reduce their steroid dose by ≥50% by week 8, % (12 mg BID): 88.2% | Patients tapering corticosteroids able to reduce their steroid dose by ≥50% by week 12, % (12 mg BID): 88.2% | Risk Difference vs PBO, Endoscopic Remission (week 12 or 16) (12 mg BID): 8.3 | Risk difference vs PBO, Clinical Remission (week 16) (12 mg BID): 0.3 | Adjudicated major adverse cardiac events (MACE) (12 mg BID dose group): Two | Refractory patients achieving clinical remission at week 16, % (12 mg BID): 26.5% | Steroid-free and CDAI < 150, Week 16 (NRI), % of patients (12 mg BID): (38.9%)* | Steroid-free and clinical response, Week 16 (NRI), % of patients (12 mg BID): (44%) | Steroid-free remission, Week 16 (NRI), % of patients (12 mg BID): (5.6%) | CR70, Week 12 (NRI), % of patients (12 mg BID): 47.2% | CR70, Week 16 (NRI), % of patients (12 mg BID): (44.4%) | CR100, Week 12 (NRI), % of patients (12 mg BID): 41.7% | CR100, Week 16 (NRI), % of patients (12 mg BID): (44.4%) | CDAI < 150, Week 12 (NRI), % of patients (24 mg BID): 38.9% | CDAI < 150, Week 16 (NRI), % of patients (24 mg BID): (30.6%) | CDAI<150 at end of 16 week induction among patients who discontinued corticosteroids, % (24 mg BID): 33.3% | Clinical remission at end of 16 week induction among patients who discontinued corticosteroids, % (24 mg BID): 33.3% | Endoscopic Improvement, patients evaluated at Week 16, % (24 mg BID): 25% | Endoscopic remission at end of 16 week induction among patients who discontinued corticosteroids, % (24 mg BID): 20% | Endoscopic response at end of 16 week induction among patients who discontinued corticosteroids, % (24 mg BID): 20% | Modified clinical remission at end of 16 week induction among patients who discontinued corticosteroids, % (24 mg BID): 36.4% | Patients tapering corticosteroids able to discontinue steroids by week 4, % (24 mg BID): 6.7% | Patients tapering corticosteroids able to discontinue steroids by week 8, % (24 mg BID): 53.3% | Patients tapering corticosteroids able to reduce their steroid dose by ≥50% by week 4, % (24 mg BID): 46.7% | Patients tapering corticosteroids able to reduce their steroid dose by ≥50% by week 8, % (24 mg BID): 66.7% | Patients tapering corticosteroids able to reduce their steroid dose by ≥50% by week 12, % (24 mg BID): 60% | Risk Difference vs PBO, Endoscopic Remission (week 12 or 16) (24 mg BID): 22.2 | Risk difference vs PBO, Clinical Remission (week 16) (24 mg BID): 11.4 | Steroid-free and CDAI < 150, Week 16 (NRI), % of patients (24 mg BID): (33.3%)* | Steroid-free and clinical response, Week 16 (NRI), % of patients (24 mg BID): (67%) | Steroid-free remission, Week 16 (NRI), % of patients (24 mg BID): (13.3%) | CR70, Week 12 (NRI), % of patients (24 mg BID): 58.3%* | CR70, Week 16 (NRI), % of patients (24 mg BID): (63.9%)* | CR100, Week 12 (NRI), % of patients (24 mg BID): 52.8%* | CR100, Week 16 (NRI), % of patients (24 mg BID): (55.6%)* | CDAI < 150, Week 12 (NRI), % of patients (24 mg QD): 22.9% | CDAI < 150, Week 16 (NRI), % of patients (24 mg QD): (20.0%) | Endoscopic Improvement, patients evaluated at Week 12, % (24 mg QD): 12.5% | Risk Difference vs PBO, Endoscopic Remission (week 12 or 16) (24 mg QD): 14.3 | Risk difference vs PBO, Clinical Remission (week 16) (24 mg QD): 3.5 | Refractory patients achieving clinical remission at week 16, % (24 mg QD (two 12 mg BID doses given simultaneously)): 36.7% | Refractory patients achieving endoscopic remission at 12 or 16 weeks, % (24 mg QD (two 12 mg doses given simultaneously)): 33.3% | Steroid-free and CDAI < 150, Week 16 (NRI), % of patients (24 mg QD): (10.0%) | Steroid-free and clinical response, Week 16 (NRI), % of patients (24 mg QD): (30%) | Steroid-free remission, Week 16 (NRI), % of patients (24 mg QD): (0%) | CR70, Week 12 (NRI), % of patients (24 mg QD): 51.4% | CR70, Week 16 (NRI), % of patients (24 mg QD): (48.6%) | CR100, Week 12 (NRI), % of patients (24 mg QD): 40.0% | CR100, Week 16 (NRI), % of patients (24 mg QD): (31.4%) | Treatment emergent deaths (16-week induction): no treatment emergent deaths | Relationship between upadacitinib plasma concentrations and efficacy endpoints (clinical response, clinical remission, CDAI<150, endoscopic response, improvement and remission, FIGS. 3A-3I): Exposure-response relationships were observed | Onset of clinical remission (induction period): as early as week 12 | Onset of endoscopic improvement (induction period): as early as week 12 | Infections compared to placebo (upadacitinib BID dose groups): increased in all upadacitinib BID dose groups compared to placebo | Incident of adverse events, numerically higher compared to placebo (upadacitinib dose groups, 16-week induction): 3-13% | Decrease in hemoglobin, Crohn's subjects compared to RA patients (week 16 (LOCF), FIG. 5A): lower decreases in hemoglobin
